Values of other authors in article PMC4920026 (Scientific Reports, 2016).

Conditions: aqueous solution, from xenon partial pressure; cited from earlier work

[Xe] [xenon]
solubility coefficient: 44 mM MPa^−1
